Results reported in PubChem BioAssay AID588855 (National Center for Advancing Translational Sciences (NCATS), 2011).
In all, about 410,000 compounds went through this assay and about 5,000 (1.2%) were called active. The inconclusive results got no clear call from the source; some entries with a clear call stand among them for comparison. Calls come from the whole dose curve; as a rule, active = well fitted inhibition curve with a large enough effect; inconclusive = small, poorly fitted or top-dose-only effect; inactive = no such curve, though single readings can be large or run the other way. Potencies beside an inconclusive call are fits to weak or partial responses and may not hold up.

Test: qHTS for Inhibitors of TGF-b; note: nearly all actives have a fitted effect of over 65% in size
Settings: HepG2 CAGA-GFP TGF-b/SMAD3 reporter, GFP fluorescence, 18 h, TGF-beta stimulated, 500 pg/mL final; series mostly up to 46.1 µM
In short: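 Per well, imaged GFP fluorescence of HEPG2 CAGA-GFP cells gives the signal; cells get compound, then TGF-beta (500 pg/mL final), 18 h at 37 degrees C; %Activity versus -TGF-beta and +DMSO controls.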
Potency is the fitted concentration of half-maximal effect; tags give direction and shape of the fitted curve.

Which Potency does the source give for `CCCS(=O)(=O)N1CC(=O)N(c2ccc(C)cc2C)C(C)(C(=O)NC2CCCCCC2)C1` (configuration not stated) here?
The Potency was “inactive”.

Which Potency does the source give for `CC(C)(C)OC(=O)NCCc1nnc(SCc2ccc(Cl)cc2)o1` here?
Its Potency is “inactive”.

For `CC(NS(=O)(=O)c1ccccc1)C(c1cccs1)N1CCN(c2ccccc2)CC1` (configuration not stated), which Potency is on record?
Its Potency is inconclusive: 35.5 µM [inhibitor, single point].

For `CC(NC(=S)NCCc1ccccc1)C(c1cccs1)N1CCN(C)CC1` (configuration not stated), which Potency is on record?
Its Potency is “inactive”.

For `CCOc1ccc(CCNC(=O)CS(=O)(=O)Cc2nc(-c3ccccc3F)oc2C)cc1`, which Potency is on record?
The Potency was inconclusive: 17.8 µM [inhibitor, single point].

For `O=C(Cn1c(=O)nc(-c2ccccc2)c2cc(Cl)ccc21)NCc1ccc(Cl)cc1`, which Potency is on record?
The Potency was inconclusive: 6.31 µM [inhibitor, single point].

For `O=C(NCC1CC1)c1ccc(-c2cn[nH]c2)c2ccoc12`, which Potency is on record?
Its Potency is “inactive”.

For `CCCS(=O)(=O)c1nnnn1-c1cccc(OC)c1`, which Potency is on record?
Its Potency is inconclusive: 12.6 µM [inhibitor, partial curve, poor fit].

For `Cc1ccc(Cl)c(OCC(=O)NN2CCN(C)CC2)c1`, which Potency is on record?
Its Potency is inconclusive: 5.62 µM [inhibitor, single point].

With `Cn1cnnc1Sc1cc(N2CCN(S(=O)(=O)c3ccc(Cl)c(Cl)c3)CC2)ccc1[N+](=O)[O-]` as the molecule, how does the Potency read?
Its Potency is inconclusive: 1.26 µM [inhibitor, full curve].

Which Potency does the source give for `O=C(CC1N=C2c3ccccc3N=C(SCc3cccc(Cl)c3)N2C1=O)NCCc1ccccc1` (configuration not stated) here?
The Potency was inconclusive: 35.5 µM [inhibitor, single point].

With `CCn1c(C)[n+](Cc2ccccc2)c2ccc(Cl)cc21` as the molecule, how does the Potency read?
Its Potency is “inactive”.

With `COc1ccccc1CC(=O)N1CCN(c2ccc(F)cc2)CC1` as the molecule, how does the Potency read?
The Potency was inconclusive: 35.5 µM [inhibitor, single point].

Which Potency does the source give for `CCOc1ccc(/C=N/NC(=S)NC2CC3CC2C2C=CCC32)cc1` (configuration not stated) here?
The Potency was inconclusive: 35.5 µM [inhibitor, single point].

For `CC(C)(CS(=O)(=O)[O-])NC(=O)CC[N+](C)(C)CCO`, which Potency is on record?
The Potency was inconclusive: 6.31 µM [inhibitor, single point].

With `O=C(CSc1nc(-c2ccccc2)cs1)Nc1ccccc1[N+](=O)[O-]` as the molecule, how does the Potency read?
The Potency was inconclusive: 28.2 µM [inhibitor, single point].

Which Potency does the source give for `CC(=O)N1CCN(C(=O)C(Cc2ccccc2)NC(=O)c2ccccc2)CC1` (configuration not stated) here?
The Potency was “inactive”.

With `Cc1c(NC(=O)CSCc2c(F)cccc2Cl)c(=O)n(-c2ccccc2)n1C` as the molecule, how does the Potency read?
Its Potency is “inactive”.

For `CC(C)Cc1c2c([nH]c(=S)c1C#N)CCCC2`, which Potency is on record?
The Potency was inconclusive: 5.62 µM [inhibitor, single point].

For `O=C(CSc1nc2nccnc2c(=O)n1CCc1c[nH]c2ccccc12)Nc1ccc(F)cc1`, which Potency is on record?
Its Potency is inconclusive: 35.5 µM [inhibitor, single point].

With `O=C(NC(Cc1ccc(O)cc1)C(=O)N=Nc1c(O)[nH]c2ccccc12)c1ccccc1` (configuration not stated) as the molecule, how does the Potency read?
The Potency was “inactive”.

With `COc1ccc(C2c3c(ncn(CCCN4CCOCC4)c3=N)Oc3ccc4ccccc4c32)cc1OC` (configuration not stated) as the molecule, how does the Potency read?
The Potency was inconclusive: 22.4 µM [inhibitor, single point].

For `CSc1nn(Cc2cccc(Cl)c2)c(N(C(C)=O)C(C)=O)c1S(=O)(=O)c1ccccc1`, which Potency is on record?
The Potency was inconclusive: 35.5 µM [inhibitor, single point].

With `NC(Cc1ccccc1)c1csc(Nc2ccc(C(=O)c3ccccc3)cc2)n1` (configuration not stated) as the molecule, how does the Potency read?
Its Potency is inconclusive: 28.2 µM [inhibitor, single point].

For `CCOc1ccc2nc(C)cc(Nc3cccc([N+](=O)[O-])c3)c2c1`, which Potency is on record?
Its Potency is inconclusive: 35.5 µM [inhibitor, single point].

With `COCCOC(=O)/C(=C\c1cc(C(C)(C)C)c(O)c(C(C)(C)C)c1)C(C)=O` as the molecule, how does the Potency read?
The Potency was inconclusive: 35.5 µM [inhibitor, single point].

For `CCCCNC(=O)c1cnc2sc(N3CCCCCC3)nn2c1=O`, which Potency is on record?
Its Potency is inconclusive: 0.631 µM [inhibitor, full curve, poor fit].

For `COc1cc(C)c(C(C)C)cc1S(=O)(=O)N1CCOCC1`, which Potency is on record?
The Potency was “inactive”.

With `Cc1cc(C)c(NC(=O)C(=O)NCC(c2cccnc2)N2CCN(Cc3ccccc3)CC2)c(C)c1` (configuration not stated) as the molecule, how does the Potency read?
Its Potency is “inactive”.

For `COc1ccc(S(=O)(=O)Nc2ccc(O)c3ccccc23)cc1`, which Potency is on record?
The Potency was inconclusive: 17.8 µM [inhibitor, single point].

For `O=C(COc1ccc(F)cc1Cl)NC1CCCCCC1`, which Potency is on record?
The Potency was inconclusive: 14.1 µM [inhibitor, single point].

For `Cc1ccccc1-c1noc(-c2ccc(N3CCN(C)CC3)c([N+](=O)[O-])c2)n1`, which Potency is on record?
The Potency was inconclusive: 5.62 µM [inhibitor, single point].

Which Potency does the source give for `O=C(c1cnn2ccccc12)N(Cc1ccco1)C1CCCC1` here?
Its Potency is inconclusive: 2 µM [inhibitor, full curve].

For `COc1ccccc1CNc1nc2cc(-c3ccc(OC)c(OC)c3)sc2c(=O)n1C`, which Potency is on record?
The Potency was inconclusive: 17.8 µM [inhibitor, partial curve, poor fit].

For `COc1cc(CCc2ccccc2)c(C(=O)O)c(O)c1CC=C(C)C`, which Potency is on record?
The Potency was inconclusive: 35.5 µM [inhibitor, single point].

With `CC(C)CCNC(=O)Cc1csc(-c2ccccc2)n1` as the molecule, how does the Potency read?
The Potency was “inactive”.

With `O=c1[nH]c(COc2ccc(Br)cc2Cl)nc2ccccc12` as the molecule, how does the Potency read?
The Potency was “inactive”.

With `CCN(c1cccc(C)c1)S(=O)(=O)c1cnc[nH]1` as the molecule, how does the Potency read?
The Potency was “inactive”.

For `COc1cccc(NC(=O)CSC2=Nc3ccccc3C3=NC(CC(=O)NCc4ccc5c(c4)OCO5)C(=O)N23)c1` (configuration not stated), which Potency is on record?
The Potency was inconclusive: 4.47 µM [inhibitor, full curve, poor fit].

With `Oc1cc(-c2cccnc2)cc2cccnc12` as the molecule, how does the Potency read?
The Potency was inconclusive: 2.82 µM [inhibitor, partial curve, poor fit].

For `CCCCCC(=O)Nc1cc(S(=O)(=O)N2CCOCC2)ccc1N1CCCCC1`, which Potency is on record?
The Potency was inconclusive: 20 µM [inhibitor, single point].

Which Potency does the source give for `CC(C)CCNC(=O)CN1C(=O)c2cccnc2Sc2ccccc21` here?
Its Potency is “inactive”.

Which Potency does the source give for `COc1ccc(CC(=O)Nc2cc(-c3cn4cccnc4n3)ccc2OC)cc1` here?
The Potency was inconclusive: 1 µM [inhibitor, full curve, poor fit].

Which Potency does the source give for `CN1CCN(Cc2cccc(Oc3ccc(Cl)cc3)c2)CC1` here?
The Potency was “inactive”.

With `COc1ccccc1CNC(=O)COC(=O)c1ccc(S(=O)(=O)N2CCCCC2)cc1` as the molecule, how does the Potency read?
Its Potency is inconclusive: 35.5 µM [inhibitor, partial curve, poor fit].

For `O=C(Cn1nnc(-c2cc(C(F)(F)F)cc(C(F)(F)F)c2)n1)NNC(=S)Nc1ccc(Cl)cc1`, which Potency is on record?
Its Potency is inconclusive: 35.5 µM [inhibitor, single point].

With `CCCOC(=O)CSc1nnc(-c2cc(OC)c(OC)c(OC)c2)o1` as the molecule, how does the Potency read?
Its Potency is inconclusive: 12.6 µM [inhibitor, partial curve, poor fit].

With `Cc1c(C(=O)N(Cc2ccco2)Cc2ccccc2Cl)oc2ccc(F)cc12` as the molecule, how does the Potency read?
Its Potency is inconclusive: 12.6 µM [inhibitor, partial curve, poor fit].

Which Potency does the source give for `O=C(C(=O)N1CCCc2ccccc21)N1CCCc2ccccc21` here?
The Potency was inconclusive: 3.16 µM [inhibitor, partial curve, poor fit].

For `COc1ccc(OC(C)C(=O)NCc2nc(-c3cccc(C)c3)no2)cc1` (configuration not stated), which Potency is on record?
Its Potency is inconclusive: 35.5 µM [inhibitor, single point].

With `CCOc1ccccc1N1CCN(C(=S)NCc2ccc(Cl)cc2)CC1` as the molecule, how does the Potency read?
Its Potency is inconclusive: 35.5 µM [inhibitor, single point].

With `CC(C)Oc1ccc(C(=O)Nc2ccc(S(=O)(=O)N3CCN(C)CC3)cc2)cc1` as the molecule, how does the Potency read?
Its Potency is inconclusive: 35.5 µM [inhibitor, partial curve, poor fit].

For `CC1CC(C)CN(C(=O)C(C)N(C)CC(=O)Nc2ccc(F)cc2)C1` (configuration not stated), which Potency is on record?
Its Potency is “inactive”.

For `Cc1ccc(CNCC(O)(c2ccc(F)cc2)c2ccc(F)cc2)cc1`, which Potency is on record?
Its Potency is inconclusive: 22.4 µM [inhibitor, single point].

Which Potency does the source give for `CCn1cnc2cc(NS(=O)(=O)c3ccc(C)cc3)ccc21` here?
Its Potency is inconclusive: 11.2 µM [inhibitor, partial curve].

With `Cc1nn(-c2ccccc2)c(Cl)c1/C=N/Nc1nc2ccccc2n1C` as the molecule, how does the Potency read?
Its Potency is inconclusive: 14.1 µM [inhibitor, single point].

For `N#Cc1ccc(C23CC4(C2)[C@H](CN(Cc2ccc(C(F)(F)F)cc2)[C@@H]4c2ccccc2)C3c2ccc(C(F)(F)F)cc2)cc1` (some centres not stated), which Potency is on record?
The Potency was “inactive”.

Which Potency does the source give for `CCOC(=O)C1=C(CN(C)Cc2ccccc2)NC(=O)NC1c1ccc(OC)cc1` (configuration not stated) here?
The Potency was inconclusive: 11.2 µM [inhibitor, partial curve].

With `O=C(NCC(c1cccnc1)N1CCc2ccccc21)c1ccc(F)cc1` (configuration not stated) as the molecule, how does the Potency read?
Its Potency is inconclusive: 12.6 µM [inhibitor, single point].

Which Potency does the source give for `Cc1ccccc1-c1cc(C(=O)NCc2cccc(Br)c2)n(CC2CC(c3cccnc3)=NO2)n1` (configuration not stated) here?
The Potency was inconclusive: 31.6 µM [inhibitor, single point].

Which Potency does the source give for `CCN1CCN(C(c2ccc(OC)c(OC)c2)c2nnnn2C(C)(C)C)CC1` (configuration not stated) here?
The Potency was inconclusive: 3.16 µM [inhibitor, single point].

Which Potency does the source give for `CCCCOc1ccccc1C(=O)N(Cc1cccc(F)c1)C1CCS(=O)(=O)C1` (configuration not stated) here?
The Potency was inconclusive: 3.16 µM [inhibitor, single point].

Which Potency does the source give for `COc1ccc(/C=C/C(=O)Nc2ccc(-c3nnc4n3CCCCC4)cc2)c(OC)c1` here?
Its Potency is “inactive”.

For `Fc1ccc(-c2nc(-c3c[nH]c4ccccc34)cs2)cc1`, which Potency is on record?
Its Potency is “inactive”.

With `Cc1ccc(NC(=O)Cn2c(=O)c3cccn3c3ccccc32)c(Cl)c1` as the molecule, how does the Potency read?
The Potency was “inactive”.

With `N#CCC(=O)N/N=C\c1ccccc1OC/C=C/c1ccccc1` as the molecule, how does the Potency read?
Its Potency is “inactive”.

For `CCCCOC(=O)c1cccc(NC(=O)/C=C/c2ccccc2Cl)c1`, which Potency is on record?
Its Potency is inconclusive: 22.4 µM [inhibitor, single point].
